In article PMC9098178, “SAR of Novel 3-Arylisoquinolinones: meta-Substitution on the Aryl Ring Dramatically Enhances Antiproliferative Activity through Binding to Microtubules” (Journal of Medicinal Chemistry, 2022):

Experiments:
[1] = tested on: A549; test: SRB antiproliferative assay, A549; type: cell-based; conditions: Homo sapiens
Experimental: In light of this substantial change in activity between the meta and para compounds, a more comprehensive analysis of the antiproliferative activity was performed for the meta-/para-3-arylisoquinolinone pairs 2 and 3, 4, and 5, as well as 6. A panel of breast (MDA-MB-231), liver (HepG2, SNU423), lung (A549), and colon (HCT116) cancer cell lines were treated with the five 3-arylisoquinolinone analogs for 96 h followed by the SRB assay. The dose–response curves (including those for MCF-7) are presented in Figure S22, and their relevant IC50 values are listed in Table 1. […] The differential activity between meta- and para-3-arylisoquinolinones was reproduced in the National Cancer Institute (NCI) one-dose screen using a panel of 59 cancer cell lines (Figure S23).
All cell lines used in the study were human-derived and purchased from ATCC (Manassas, USA). […]
Screening of the antiproliferative activity of 3-arylisoquinolinones was performed using the SRB assay as previously described.[56] […] Finally, the cellular protein-bound SRB was thoroughly dissolved in 10 mM Tris base, and the OD values were read at 510 nm using a plate reader (μQuant Microplate Spectrophotometer, Biotek, U.K.) coupled with Gen5 software (BioTek, U.K.). […] Cell growth was calculated using the following formula: cell growth (%) = (ODtest/ODcontrol) × 100.

[2] = tested on: SNU423 cells; test: Annexin V/PI apoptosis assay; type: cell-based, human; conditions: 0.5 and 1 μM, 24 h
Experimental: SNU423 (2 × 10^5) cells were seeded into 6 cm dishes and incubated overnight. The culture medium was then changed with a fresh one (to get rid of any floating, potentially dead cells) followed by 24 h treatment with 4 (0.5, 1 μM). Floating and attached cells were then collected, washed with cold PBS, and washed with Annexin V binding buffer (ABB; BD Pharmingen, Cat# 556454). Next, the cell pellets were incubated with 2% (v/v) APC-conjugated Annexin V (prepared in ABB; BD Pharmingen, Cat# 550474) for 10 min at RT in the dark. Following washing with ABB, the cell pellets were resuspended in 300 μL of 0.5 μg/mL PI (prepared in ABB), kept on ice, and protected from light. Finally, the cells were promptly analyzed with flow cytometry, where the fluorescence data were collected from 10 000 single cells following gating (see Figure S27) and plotted onto quadrant graphs to determine the percentages of different cell populations. The bottom left and top left quadrants indicate live (Annexin Vl^ow/PI^low) and necrotic (Annexin Vl^ow/PI^high) cells, respectively. Further, the bottom right and top right quadrants represent early apoptotic (Annexin Vl^high/PI^low) and late apoptotic/necrotic (Annexin Vl^high/PI^high) cells, respectively.

O=c1[nH]c(-c2cccc(F)c2)cc2cc(F)ccc12 [compound 4, 6-Fluoro-3-(3-fluorophenyl)isoquinolin-1(2H)-one]
IC50 ([1]; 24 h +drug/72 h –drug treatment, read-out: mean IC50 ± SEM, A549): 0.44 ± 0.08 µM
IC50 ([1]; 96 h treatment, mean ± SEM, read-out: IC50 A549): 0.27 ± 0.06 µM
early apoptotic cells versus control [2]: significant increase
late apoptotic cells versus control [2]: significant increase

Where two headings read alike, the source gives them in different places.
